Data published in PubChem BioAssay AID1508624 (National Center for Advancing Translational Sciences (NCATS), 2021).
The campaign covered roughly 48,000 compounds. About 120 (0.25%) were called active. Roughly 4% stayed inconclusive and do not appear here. Calls follow the shape of the dose curve; as a rule, active = well fitted activation curve with a large enough effect; inconclusive = small, poorly fitted or top-dose-only effect, or another doubt; inactive = no such curve, though single readings can be large or run the other way. Some of the results follow.

Assay: Primary qHTS for Identification of Small Molecule Activators of Huntingtin-Antisense Promoter Activity; also: nearly all actives have a fitted effect of over 55% in size
Settings: HEK293 HTT-AS promoter firefly luciferase reporter (activity 0% = vehicle and -100% = no light), 24 h; series mostly up to 57.5 µM; activity change, positive = activation: at the top concentration
How it was run: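 HEK293 Fluc reporter, 2,500 cells/well, 24 h pre-culture; cpds up to 57.5 uM final, 24 h 37 degrees C; Dual-Glo, 10 min RT; normalized vehicle = 0%, zero RLU = -100%.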

SMILES	activity change, positive = activation
CC(C)NC(=O)C(c1ccccc1)N1Cc2ccccc2C1=O (centres undefined)	inactive: 1.94%
CC1=C(C(N)=O)C(c2cccc(C)c2)n2nc(-c3cccc(C)c3)nc2N1 (centres undefined)	inactive: -11.6%
Cc1ccc(C)c(NC(=O)Cn2c(=O)n(Cc3ccc4c(c3)OCO4)c(=O)c3oc4ccccc4c32)c1	inactive: -3.55%
CCCc1nc2c(C)cc(-c3nc4ccccc4n3C)cc2n1Cc1ccc(-c2ccccc2C(=O)O)cc1	inactive
Cc1ccc(CSc2nnc(-n3c(=O)c(C#N)cc4c(=O)n5cc(C)ccc5nc43)s2)cc1	inactive: -13.5%
COc1ccc(-c2noc(CSc3nc(C)cc(=O)[nH]3)n2)cc1OC	inactive: -31.1%
COc1cc(C(CC(=O)Nc2cc(C)ccc2C)N2Cc3ccccc3C2=O)cc(OC)c1OC (centres undefined)	inactive: -18%
CC(=O)c1ccc(NC(c2ccc(F)cc2)c2nnc(-c3ccccc3)o2)cc1 (centres undefined)	inactive: -17.4%
CC(C)(C)OC(=O)N1CCC(c2c(C(=O)N3CCN(c4ccccn4)CC3)cnn2-c2ccccc2Cl)CC1	inactive: -12.2%
CCOCCCNC(=O)c1cn(CC)c2ccc(S(=O)(=O)N3CCc4ccccc4C3)cc2c1=O	inactive: -13.1%
Cc1ccc2nc(-c3ccncc3)c(Nc3ccc(C(C)C)cc3)n2c1	inactive: 4.45%
CCOC(=O)c1[nH]c(C)c(CCC(=O)N2CCN(c3cccc(C)c3C)CC2)c1C	inactive: -30.8%
CCc1ccc(Nc2sc(C(=O)c3ccccc3)c(N)c2S(C)(=O)=O)cc1	inactive: -25.4%
CCOCCc1nn2c(=O)cc(COC(=O)CNC(=O)c3ccc(F)cc3)nc2s1	inactive: -0.728%
CCOc1ccc(CC(=O)NCCc2csc(-c3ccc(Cl)cc3)n2)cc1	inactive: -26.4%
COc1ccc(OC)c(CNC(=O)c2c(C)oc3ncn(C)c(=O)c23)c1	inactive: -0.0819%
O=C(c1ccc2c(c1)CCN2S(=O)(=O)c1ccc(Cl)cc1)N1CCN(c2ccccc2)CC1	inactive: -4.78%
CCOc1ccc(CN2C(=O)c3ccccc3Sc3ccc(C(=O)OC)cc32)cc1	inactive: -43.7%
CC(=O)Nc1ccc(S(=O)(=O)NCc2cccn2Cc2cccc(C)c2)cc1	inactive: -15.8%
COc1ccc(N2CC(NC(=O)c3ccco3)CC2=O)cc1OC (centres undefined)	inactive: -18%
O=C(NCc1ccc(F)cc1)C1CCN(c2ncnc3c2nc2n3CCCCC2)CC1	inactive: 3.37%
COc1ccc(CNC(=O)c2ccc3c(c2)N(Cc2ccccc2C)C(=O)c2ccccc2S3=O)cc1 (centres undefined)	inactive: -4.51%
COc1ccc(CNc2oc(/C=C/c3cccc(OC)c3)nc2C#N)cc1	inactive: 0.37%
Cc1ccc(NC(=O)CSCc2cnn(-c3ccccc3)c2-n2cccc2)c(Cl)c1	inactive: -19.7%
CCc1ccccc1NC(=O)Cn1c(=O)n(-c2ccc(C)c(C)c2)c(=O)c2oc3ccccc3c21	inactive: -10.2%

SMILES	activity change, positive = activation
COc1ccc(S(=O)(=O)NCCc2sc(-c3cccc(C)c3)nc2C)cc1	inactive: -19.1%
Cc1ccc(CCNC(=O)c2cccc(Nc3nc4ccccc4nc3-n3nc(C)cc3C)c2)cc1	inactive: -7.63%
COc1cc(Br)ccc1C1C(C(=O)Nc2ccc(C)cc2C)=C(C)Nc2nnnn21 (centres undefined)	inactive: -26.6%
COc1ccc(CCNc2nc3ccccc3c3nc(-c4cccc(C)c4)nn23)cc1OC	inactive: 29.9%
CCc1ccc(-n2nc(C)c3c(C(=O)N4CCN(c5cccc(Cl)c5)CC4)cc(C)nc32)cc1	inactive: -41.7%
Cc1nn(CC(=O)N2CCN(c3cccc(Cl)c3)CC2)c(=O)c2c1sc1ccccc12	inactive: 3.4%
CCOC(=O)c1ccc(NC(=O)CCc2c(C)nc3c(c(C)nn3C(C)(C)C)c2C)cc1	inactive: -35.4%
CC(C)CCNC(=O)c1ccc(Cn2c(SCC(N)=O)nc3ccccc3c2=O)cc1	inactive: -10.3%
CCOc1cc(C(=O)OCc2cc(=O)n3nc(C4CC4)sc3n2)cc(OCC)c1OCC	inactive: -10.7%
COc1cc(OC)c(NC(=O)NCc2cccn2Cc2ccccc2)cc1Cl	inactive: -10.9%
CC(C)CCNC(=O)c1nn(C)c2c1CSc1ccccc1-2	inactive: 13.8%
COC(=O)c1c(-c2cccs2)csc1NC(=O)c1cc(OC)c(OC)c(OC)c1	inactive: -10.8%
COc1ccc(-n2ccn(CC(=O)Nc3ccc(C)c(C)c3)c(=O)c2=O)cc1OC	inactive: 2.51%
CCOc1cc2[nH]c(=O)n(CCCC(=O)NCc3ccc(OC)cc3)c(=O)c2cc1OCC	inactive: -12.3%
CC1CCCN(S(=O)(=O)c2cc(C(=O)NCc3ccccc3Cl)n(C)c2)C1 (centres undefined)	inactive: -30.9%
Cc1ccc(F)cc1NC(=O)CCSc1nc(-c2ccco2)cc(C(F)(F)F)n1	inactive: -14.8%
Cc1ccc(NC(=O)C(=O)NCC(c2cccnc2)N2CCc3ccccc3C2)cc1 (centres undefined)	inactive: -22.7%
C=Cc1ccc(Cn2c(C(=O)O)c(CNCc3ccccc3)c3ccc(OC)cc32)cc1	inactive: -37.5%
CC1=CC(=O)c2ccccc2C1=O	inactive
CCN(C(=O)c1cc2cc(Br)cc(OC)c2oc1=O)c1ccccc1	inactive: -12.2%
O=C(NC1CCCCCC1)c1ccc(CS(=O)c2ccc(Br)cc2)o1 (centres undefined)	inactive: -27.2%
COc1cccc(C2c3c(-c4ccccc4O)n[nH]c3C(=O)N2Cc2cccnc2)c1 (centres undefined)	inactive: -21.8%
CCOc1ccc(CNC(=O)C2=Cc3cc(Br)ccc3OC2)cc1OC	inactive: -19.8%
COc1ccccc1NC(=O)c1oc2ccccc2c1NC(=O)COc1ccccc1OC	inactive: 22.9%
